Experimental data: PubChem BioAssay AID624296 (National Center for Advancing Translational Sciences (NCATS), 2012)
The campaign covered roughly 350,000 compounds. About 9,900 (2.8%) were called active. The inconclusive results got no clear call from the source; some entries with a clear call stand among them for comparison. Calls come from the whole dose curve; as a rule, active = well fitted activation curve with a large enough effect; inconclusive = small, poorly fitted or top-dose-only effect; inactive = no such curve, though single readings can be large or run the other way. No potency is given beside an inconclusive call; the fits are too rough.

Assay: A quantitative high throughput screen for small molecules that induce DNA re-replication in MCF 10a normal breast cells. For activity, positive = re-replication: % of control where 0% means no effect. Note: nearly all actives have a fitted effect of over 50% in size.
Conditions: MCF 10A DNA re-replication, Hoechst nuclear intensity, 48 h; activity, positive = re-replication: at 46.1 µM (top of the series)
Potency is the fitted concentration of half-maximal effect; tags give direction and shape of the fitted curve.

Row | SMILES | activity, positive = re-replication | Potency
1 | CC(=O)c1sc(NC(=O)c2ccc(C)c(C)c2)nc1C | inactive: 3.85% | 
2 | CCOC(=O)Nc1ccc2c(c1)N(C(=O)OC)c1ccccc1CC2 |  | inconclusive [activator, single point]
3 | CC(=O)Nc1cccc(NC(=O)CSc2nc3c(=O)n(C)c(=O)n(C)c3n2C)c1 | inactive: 0.34% | 
4 | COC(=O)Cc1c(C)c2ccc(OC3CCCCC3=O)c(C)c2oc1=O (configuration not stated) | inactive: 14.7% | 
5 | COC(=O)c1nc2n(n1)C(c1cccc(Cl)c1)C1=C(CCCC1=O)N2 (configuration not stated) | inactive: 15.5% | 
6 | COc1ccccc1CNC(=O)c1ccc2ccccc2n1 |  | inconclusive [activator, partial curve, poor fit]
7 | COc1cc(C(=O)NCc2ccncc2)cc(OC)c1OC | inactive: -3.03% | 
8 | O=C1NN(c2ccccc2)C(=O)/C1=C\c1coc2ccc(O)cc2c1=O |  | inconclusive [activator, single point]
9 | CCCCC(=O)Nc1ccc(NC(=O)c2ccccc2OC)cn1 |  | inconclusive [activator, single point]
10 | Cc1ccc(CNC(=O)c2csc3c2CCCCC3)cc1 |  | inconclusive [activator, full curve, poor fit]
11 | COc1cc(C(=O)Nc2cc(S(C)(=O)=O)ccc2Cl)ccc1OCC(=O)N1CCOCC1 |  | inconclusive [activator, partial curve, poor fit]
12 | S=C(Nc1cccc(Br)c1)N1CCn2cccc2C1c1cccnc1 (configuration not stated) |  | inconclusive [activator, single point]
13 | COc1cc([N+](=O)[O-])cc(/C=N/NC(=O)C(C)Nc2cccc(C)c2)c1O (configuration not stated) |  | inconclusive [activator, single point]
14 | Cc1cccc(N2CCN(C(=O)CC(NC(=O)c3ccccc3Cl)c3ccccc3)CC2)c1C (configuration not stated) |  | inconclusive [activator, single point]
15 | Cc1cc(C(=O)NCC(c2cccs2)N2CCOCC2)ccc1[N+](=O)[O-] (configuration not stated) |  | inconclusive [activator, single point]
16 | CNc1ccc(Br)cc(C(=O)/C=C/c2cc(OC)ccc2OC)c1=O |  | inconclusive [activator, single point]
17 | CCS(=O)(=O)N1Cc2ccccc2CC1C(=O)Nc1cccc(OC)c1 (configuration not stated) | inactive: 11.5% | 
18 | O=C(NC[C@@H]1CC[C@@H](Cc2ccc(-c3ccccc3)cc2)O1)Nc1ccc(Br)cc1 |  | inconclusive [activator, partial curve, poor fit]
19 | C=C(C)C1CCC2(C(=O)O)CCC3(C)C(CCC4C5(C)C(C=O)C(O)C(C)(C)C5CCC43C)C12 (configuration not stated) |  | inconclusive [activator, partial curve]
20 | CCN1C=C(Cc2ccc(OC)cc2)C2=C(C1)C(c1ccc(OC)cc1)C(C#N)=C(N)O2 (configuration not stated) |  | inconclusive [activator, single point]
21 | COCCN(Cc1ccccc1)C(=O)Cc1ccc(OC)c(S(=O)(=O)N2CCOCC2)c1 | inactive: -3.62% | 
22 | CCN(CC)C(=O)/C(=C/c1cn(S(=O)(=O)N(C)C)c2ccccc12)NC(=O)c1ccc(OC)cc1 |  | inconclusive [activator, single point]
23 | CCOC(=O)CNC(=O)C12CC3CC(CC(C3)C1)C2 | inactive: 0.598% | 

Row | SMILES | activity, positive = re-replication | Potency
24 | COc1ccc(C(=O)NCCOc2ccccc2)cc1S(=O)(=O)N1CCOCC1 | inactive: -5.65% | 
25 | CCCC(O)(c1ccc(Cl)cc1)C(CN1CCOCC1)c1ccc(Cl)cc1 (configuration not stated) |  | inconclusive [activator, single point]
26 | O=C(NCc1ccccc1)c1nc(-c2cccs2)no1 |  | inconclusive [activator, partial curve, poor fit]
27 | Cc1ccccc1NC(=O)Cc1c[nH]c2ccccc12 | inactive: -0.0728% | 
28 | CCOC(CN=c1nc(N(C)C)ss1)OCC |  | inconclusive [activator, single point]
29 | COc1ccc(-c2c(C#Cc3ccsc3)c3cc(Br)ccc3n2C)cc1 |  | inconclusive [activator, partial curve, poor fit]
30 | CCCNC(=O)c1ccc2c(=O)c(O)c(-c3ccc(C)cc3)[nH]c2c1 |  | inconclusive [activator, single point]
31 | CC(C)(C)OC(=O)CNC(=O)c1[nH]cnc1C(=O)N[C@@H](Cc1ccccc1)C(=O)OCc1ccccc1 |  | inconclusive [activator, single point]
32 | Cc1ccc(S(=O)(=O)Nc2ccc3cc([N+](=O)[O-])ccc3c2[N+](=O)[O-])cc1 |  | inconclusive [activator, partial curve]
33 | CN(C)CCNc1ccc(-c2n[nH]c(=O)c3ccccc23)cc1[N+](=O)[O-] |  | inconclusive [activator, single point]
34 | CC(NC(=O)Cc1ccc(-c2ccccc2)cc1)c1ccccc1 (configuration not stated) |  | inconclusive [activator, single point]
35 | Clc1ccc2c(N/N=C/c3ccc(Br)cc3)ccnc2c1 |  | active: 2.59 µM
36 | COc1cc(C=O)ccc1OCC(=O)NC(C)(C)C |  | inconclusive [activator, single point]
37 | CN(C)c1ccc(C2N(c3ccc(Cl)cc3)C(=O)C3CCCN32)cc1 (configuration not stated) | inactive: 3.93% | 
38 | CCOC(=O)c1ccc(NC(=O)N2CCN(Cc3cccc(F)c3)CC2)cc1 |  | inconclusive [activator, partial curve, poor fit]
39 | Nn1cnnc1SCC(=O)N1CCc2ccccc2C1 | inactive: -3.23% | 
40 | CCn1ncc(C2=NOC(C(=O)NCc3ccccc3)C2)c1C (configuration not stated) |  | active: 4.61 µM
41 | Cc1cc(Cl)ccc1OCC(=O)NCCCCc1ccccc1 |  | inconclusive [activator, single point]
42 | O=C(N/N=C/c1c(O)ccc2ccccc12)c1ccc(CO)nc1 |  | inconclusive [activator, single point]
43 | O=C(Oc1c(CN2CCOCC2)cc(Cl)c2cccnc12)c1ccccc1 |  | inconclusive [activator, partial curve, poor fit]
44 | Cc1cnc(=O)[nH]c1SCc1ccccc1F |  | inconclusive [activator, single point]
45 | NC(N)=N/N=C/c1ccc(OS(=O)(=O)c2ccccc2)cc1 |  | active: 18.4 µM
46 | Cc1cc(C)c2nc(N3CCC(C(=O)NCCCN4CC(C)CC(C)C4)CC3)sc2c1 (configuration not stated) |  | inconclusive [activator, single point]

Row | SMILES | activity, positive = re-replication | Potency
47 | Cc1ccc2[nH]cc(CCNC(=O)c3cccs3)c2c1 |  | inconclusive [activator, single point]
48 | CCOC(=O)c1c(C)[nH]c(C)c1C(=O)CSc1nc2ccccc2c(=O)n1-c1ccccc1C |  | inconclusive [activator, partial curve, poor fit]
49 | N#C/C(=C\c1c(Cl)cccc1Cl)c1nn(-c2ccccc2)c(-n2cccc2)c1C#N |  | active: 16.4 µM
50 | COc1ccc(NC(=S)N(CCCN2CCOCC2)Cc2ccccn2)cc1 | inactive: -6.39% | 
51 | COC(=O)C(COC(=O)c1c(F)cccc1F)NC(=O)c1c(F)cccc1F (configuration not stated) |  | inconclusive [activator, single point]
52 | COc1cccc(CC2(CO)CCCN(Cc3ccc(CN4CCCCC4)s3)C2)c1 (configuration not stated) |  | inconclusive [activator, partial curve, poor fit]
53 | CN(C(=O)c1cccc(NC(=O)Cc2ccc(NC(=O)C3CCN(C(=O)C4CC4)CC3)cc2)c1)C1CCCC1 |  | inconclusive [activator, full curve, poor fit]
54 | Cc1nn(Cc2cccc(C(=O)NC34CC5CC(CC(C5)C3)C4)c2)c(C)c1Br |  | active: 9.2 µM
55 | S=c1[nH]nc(-c2ccncc2)n1/N=C/c1cn(-c2ccccc2)nc1-c1ccc(Cl)cc1 |  | inconclusive [activator, full curve, poor fit]
56 | O=[N+]([O-])c1ccc(N=Cc2ccc(Br)c([N+](=O)[O-])c2)cc1 |  | inconclusive [activator, single point]
57 | Cc1cnc(NC(=O)c2cncc(Br)c2)s1 |  | inconclusive [activator, single point]
58 | CN(C)c1oc(-c2ccc(OCc3ccccc3)cc2)nc1C#N |  | inconclusive [activator, single point]
59 | COc1cc(C(CC(=O)Nc2ccc(Cl)cn2)N2Cc3ccccc3C2=O)cc(OC)c1OC (configuration not stated) | inactive: -2.4% | 
60 | COc1cc(-c2cc(C(=O)N3CCN(c4ccccn4)CC3)c3ccccc3n2)cc(OC)c1OC |  | inconclusive [activator, partial curve]
61 | O=[N+]([O-])c1ccc(Nc2nc(NC3CCCCC3)nc(N3CCCC3)n2)cc1 |  | inconclusive [activator, single point]
62 | CC(/C=N/NC(=S)Nc1cccc(S(=O)(=O)N(C)C)c1)c1ccccc1 (configuration not stated) | inactive: -3.27% | 
63 | COc1ccc(Cl)cc1NC(=O)CN(C)C(=O)c1n[nH]c2ccccc12 | inactive: 3.55% | 
64 | O=C1c2cccc3c([N+](=O)[O-])ccc(c23)C(=O)N1CC1CCCO1 (configuration not stated) |  | active: 18.4 µM
65 | Cc1c(O)c(=O)ccn1Cc1ccccc1 |  | inconclusive [activator, full curve, poor fit]
66 | CCOC(=O)Cc1csc(NC(=O)/C=C/c2cccc(Br)c2)n1 |  | inconclusive [activator, single point]
67 | N#Cc1cccc(C#N)c1Oc1ccc(S(=O)(=O)Nc2ccccc2)cc1 |  | inconclusive [activator, partial curve, poor fit]
